Experimental findings from PubChem BioAssay (NCI) are described below.

Molecules are shown by their SMILES. Where “and” joins values, the source holds several entries; their conditions need not be identical. Identical values can stand only once.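 Tested at 5 concentrations; 48 h exposure; 96-well plates; endpoints linearly interpolated, else capped at highest concentration. GI50 = concentration required for 50% inhibition of growth. TGI denotes the concentration required for complete inhibition of growth.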 Bridge positions count the residues as written; N and C are the ends. Square brackets hold non-standard residues; d marks the D form. Peptide text beside a SMILES is read from it. * marks the point of attachment. ξ: configuration not given here. X21 = O=C(/C=C/C=C/C=C/C=C/C=C/C(=O)*)NC1=C(O)CCC1=O; Pro(4R-Me) = C[C@H]1CN[C@H](C(=O)O)C1; NMeA = CN[C@@H](C)C(=O)O; ξF = NC(Cc1ccccc1)C(=O)O; ξA = CC(N)C(=O)O Where only a bound is given, the exact number is not on record here.

This test concerns NCI-H322M lung. Briefly: growth of human tumour cells (NCI), 48 h.
Regarding `CSc1nc(-c2cc3ccccc3o2)cc(-c2ccc(Cl)cc2)c1C#N`, the GI50 is more than 65.3 µM and the TGI is more than 100 µM.

`O=C(Cc1cc[n+]([O-])cc1)C(=O)Nc1cc(Cl)c(Cl)cc1Cl` had a TGI of more than 100 µM. `CCOC(=O)C1=C(C)NC(=O)NC1c1ccc(N(CCCl)CCCl)cc1Cl` (stereo unspecified) gave a TGI of 35.5 µM.

Turning to `Nc1ncnc2c1ncc(=O)n2C1CC(O)C(CO)O1` (stereo unspecified), the TGI was more than 100 µM. `CCc1n[nH]c(=O)n1/N=C/c1ccc(/C=N/n2c(CC)n[nH]c2=O)cc1` gave a TGI of more than 100 µM.

Consider `O=C1Nc2ccccc2/C1=C\c1c(-c2ccccc2)nc2ccccn12`, for which the GI50 is 3.68 µM and the TGI is 49.6 µM. Regarding `O=C1C[C@@H](Sc2ccccc2)C2(OCCO2)C2ON3CCCC[C@H]3[C@H]12` (stereo partly specified), the TGI is 27.3 µM. The same measure, in the same setting: in the case of `CN(CCCN=C=S)CCCN1c2ccccc2CCc2ccccc21` it was 3.11 µM; in that of `O=C1C=CC(O)(C#CCO)C=C1`, 46.1 µM. The same measure, in the same setting: the figure for `CC(=O)NNc1nc(C)c(C(=O)/C=C/C=C/c2ccccc2)s1` is more than 100 µM; for `Cc1ccc(-c2cc(-c3ccccc3)nc(N)n2)c(O)c1` it is more than 100 µM; for `CCOC(=O)O/C(=C\c1ccc(OC)cc1)c1c(OC(=O)OCC)n(C(=O)OCC)c2ccccc12` it is more than 100 µM.

In the case of `Nc1nccc2c1ncn2[C@H]1C[C@H](O)[C@@H](CO)O1`, the TGI was more than 100 µM. Regarding `COC1=CC(=O)N(C(=O)C2CSC(C(CO)NC(=O)c3csc(/C=N/O)n3)=N2)C1` (stereo unspecified), the TGI was more than 100 µM.

On to `Nc1ccc(S(=O)(=O)c2ccc(N)cc2)cc1`, for which the GI50 was more than 100 µM and the TGI was more than 100 µM. For `CC1(C)CC(C)(C)CC(O)(C2(O)CC(C)(C)CC(C)(C)C2)C1`, the TGI is more than 100 µM.

For `CC(=O)OC1CN2CCC1CC2` (stereo unspecified), the TGI is more than 100 µM.

Consider `C1C[OH+]CC[OH+]CC[OH+]CC[OH+]CC[OH+]CC[OH+]1.[Cl-].[V]`, for which the GI50 was 23 µM and the TGI worked out at 78.8 µM. As for `O=c1[nH]nc(-c2ccccc2)n1/N=C\CC/C=N\n1c(-c2ccccc2)n[nH]c1=O`, the TGI is more than 100 µM.

In the case of `O=C(C[n+]1cccc2cc(Cl)ccc21)c1ccc2c(c1)CCCC2`, the GI50 was 2.82 µM and the TGI was found to be 11.7 µM.

As for `Cc1cc(S(=O)(=O)n2cc[nH]c2=O)c(SCCCN(C)C)cc1Cl`, the TGI was more than 100 µM. With `O=C1/C=C/[C@@H](O)[C@@H]2C[C@@H](O)C[C@H]2/C=C/CCC[C@H](CCOCc2ccccc2)O1`, the GI50 is 0.0785 µM and the TGI was more than 100 µM. As for `COC(=O)Cc1cc2c(cc1C(=O)c1ccc(N)cc1)OCO2`, the TGI is more than 100 µM. Compound `CCOc1ccc([Se][Se]c2ccc(OCC)cc2)cc1` came in with a TGI of more than 100 µM. The same measure, in the same setting: in the case of `CCC(=O)Nc1ccc(NCC(=O)Nc2ccc(Cl)cc2)cc1` it was 29.9 µM. On the same count and under the same terms, the figure for `O=c1[nH]cnc2c1sc(=S)n2-c1ccccc1` is more than 100 µM. On the same count and under the same terms, the figure for `NC(CCC(=O)Nc1ccc(O)cc1)C(=O)O` (stereo unspecified) is more than 100 µM; for `COc1ccc2[nH]c3c(C)c4ccncc4c(C)c3c2c1` it is 1.66 µM; for `CCOC(=O)CC[C@H](NC(=O)c1[nH]cnc1/N=N/N(C)C)C(=O)OCC` it is more than 100 µM. `Cc1ccc(-n2c(O)c(C=N)c(=O)n(-c3ccc(C)cc3)c2=O)cc1` displayed a TGI of more than 100 µM. With `OC1CCCN(C2(c3cccs3)CCCCC2)C1` (stereo unspecified), the TGI is more than 100 µM. Regarding `COc1cccc2[nH]c3c4c(c5c(c3c12)C(=O)N(CN1CCN(C)CC1)C5=O)CCC4`, the GI50 was 12.9 µM and the TGI was 34.5 µM. On to `Cc1cc2c(c(S(=O)(=O)c3ccc(Cl)cc3[N+](=O)[O-])c1)NCCC2`, for which the TGI is more than 100 µM. Still for that read-out and setting: in the case of `NC1=NC(=O)[C@H](Cc2c[nH]c3ccccc23)N1C(=O)OCc1ccccc1` it was more than 100 µM; in that of `COC(=O)C(Cc1c[nH]c2ccccc12)NP(=O)(O)OCC1OC(n2ccc(N)nc2=O)C(O)C1O` (stereo unspecified), more than 100 µM.

The compound `CC(C)(C)/C(O)=C\c1nc2ccc(C(F)(F)F)cc2[nH]c1=O` had a TGI of more than 100 µM. Take `CCCCCC(=O)Nc1n[nH]nc1C#N`: the TGI is more than 100 µM. Still for that read-out and setting: in the case of `Cc1nc2ccccc2nc1NNc1ccccc1` it was more than 100 µM. Turning to `C=C(CBr)CCCOCc1ccccc1`, the TGI was more than 100 µM. For the compound `O=C(c1ccco1)c1nc2ccc(Cl)cc2[n+]([O-])c1C(F)(F)F`, the GI50 was more than 100 µM and the TGI was more than 100 µM. As for `COc1ccc2cc(C#Cc3ccc(-n4c(/C=C/c5cc(OC)c(OC)c(OC)c5)nc5ccccc5c4=O)c(C)c3)ccc2c1`, the GI50 was more than 100 µM and the TGI was more than 100 µM. Consider `Nc1n[nH]c2cccc(C#Cc3cccc(NC(=O)c4ccc(N5CCOCC5)c(C(F)(F)F)c4)c3)c12`, for which the GI50 was 1.76 µM and the TGI came to 6.36 µM.

For the compound `CNC(=O)c1ccccc1Nc1cc(Nc2ccc(N3CCOCC3)cc2OC)ncc1C(F)(F)F`, the GI50 was 2.11 µM and the TGI was more than 79.6 µM. Take `S=C(S)NCCNC(=S)S.[Cu+2]`: the GI50 was more than 100 µM and the TGI is more than 100 µM. Compound `C=C1CC2(CC(c3ccccc3OC)OC(c3ccccc3OC)C2)OC1=O` (stereo unspecified) gave a TGI of 28.7 µM.

As to `COc1cc(C(c2c(O)c3ccccc3oc2=O)c2c(O)c3ccccc3oc2=O)ccc1O`, the TGI was more than 100 µM. As for `Clc1ccc2c(N3CCN(c4ccnc(NC5CCCCC5)n4)CC3)ccnc2c1`, the GI50 was 3.2 µM and the TGI is 12 µM. `COc1cccc2c1C(=O)c1c(O)c3c(c(O)c1C2=O)C[C@@](O)(C(=O)CO)C[C@@H]3OC1CC2C(OCN3CN2COC2C(C)OC(O[C@H]4C[C@](O)(C(=O)CO)Cc5c(O)c6c(c(O)c54)C(=O)c4c(OC)cccc4C6=O)CC23)C(C)O1` (stereo partly specified): the GI50 is 0.0284 µM and 0.0179 µM; the TGI is 0.646 µM and 0.18 µM and 0.14 µM. The compound `CC1NC(=O)[C@H](C)N(C)C(=O)[C@@H]2CCCN2C(=O)[C@@H](NC(=O)C(Cc2ccccc2)NC(=O)/C=C/C=C/C=C/C=C/C=C/C(=O)NC2=C(O)CCC2=O)COC(=O)[C@@H]2C[C@@H](C)CN2C1=O` (stereo partly drawn) (X21-[ξF]SP[NMeA][ξA][Pro(4R-Me)]; ester 2-C) yielded a TGI of more than 100 µM.

`CC1CC[C@@]23CCC4(C)[C@@](C=CC5[C@@]6(C)CCC(=O)C(C)(C)C6CC[C@]54C)(OC2=O)[C@@H]3[C@H]1C` (stereo partly specified) showed a TGI of more than 100 µM. With `COC(c1ccccc1)C(c1ccccc1)N1CCOCC1` (stereo unspecified), the TGI was more than 100 µM. Still for that read-out and setting: the figure for `NS(=O)(=O)c1ccc(NC(=S)/N=C/c2c(O)c3ccccc3oc2=O)cc1` is more than 100 µM. `OCCCCC#Cc1ccccc1C#Cc1ccccn1`: the GI50 is 56.5 µM and the TGI is more than 100 µM. With `Nc1cccc2nnccc12`, the TGI is more than 100 µM. For the compound `COc1ccc(-c2cn[nH]c2-c2cc(OC)c(OC)c(OC)c2)cc1OCc1ccccc1`, the GI50 was 4.83 µM and the TGI amounted to 44.9 µM. Take `CC[C@H](C)[C@H](NC(=O)c1ccccn1)C(=O)N(C)[C@H](C[C@@H](OC(C)=O)c1nc(C(=O)N[C@@H](Cc2ccccc2)C[C@H](C)C(=O)OC)cs1)C(C)C`: the GI50 was 36.9 µM and the TGI is more than 100 µM. Consider `O=C(Cc1n[nH]c(=O)c2ccccc12)OCc1c(Cl)cccc1Cl`, for which the GI50 is more than 100 µM and the TGI was more than 100 µM. In the case of `O=C1C=CC(=O)C(CNc2ccc(C(=O)OC34CC5CC(CC(C5)C3)C4)cc2)=C1Br`, the TGI worked out at 29.6 µM. On the same count and under the same terms, the figure for `C[C@H]1[C@H](N2CCCC2)O[Si](C(C)(C)C)(C(C)(C)C)[C@@H]1C` is more than 100 µM; for `COc1cc2c(c(O)c1OC)C(=O)C1CCC(=O)N1C2c1cccc2ccccc12` (stereo unspecified) it is more than 100 µM. In turn, `CC1CC/C(=C\c2ccc(F)cc2)C2=C1C(c1ccc(F)cc1)n1c(s/c(=C/c3cccc(Br)c3)c1=O)=N2` (stereo unspecified) came in with a TGI of more than 100 µM.

With `C=C(Cl)C(Cl)(CBr)CCCC(C)(C)Cl` (stereo unspecified), the TGI is 25.1 µM. On the same count and under the same terms, in the case of `O=c1[nH]c(=O)n(COCCOCc2ccccc2)cc1Nc1ccccc1` it was more than 100 µM. Turning to `c1cc[n+](C2c3ccccc3C([n+]3ccccc3)c3ccccc32)cc1` (stereo unspecified), the GI50 was 21 µM and the TGI is more than 100 µM.

As to `O=C(Nc1ccc(Cl)cc1)c1cc2c(cc1Cl)SC(NNCCO)=NS2(=O)=O`, the TGI is more than 100 µM. Consider `COc1cccc(C2=C(c3cn(C)c4ccc(Cl)cc34)C(=O)NC2=O)c1`, for which the GI50 was 9.41 µM and the TGI was more than 22.2 µM. The corresponding values for `COc1ccc2c(c1)/C(=N/OC(C)=O)c1c-2c(Nc2cccc(/C(C)=N/OC(C)=O)c2)nc2ccccc12` are 38.2 µM and more than 100 µM. In the case of `O=C(CC(=O)n1nc(-c2ccccc2)c(N=Nc2ccccc2Cl)c1-c1ccccc1)Nc1ccc(Cl)cc1`, the TGI is more than 100 µM. For the compound `O=C(c1ccc(Cl)c(Cl)c1)N1CCN(C(=O)c2ccc(Cl)c(Cl)c2)C1=S`, the GI50 is 19.8 µM and the TGI came out at 35 µM. In the same order, the values of `C=CC(=O)N1CCN(CCCn2c(=O)c(-c3c(Cl)c(OC)cc(OC)c3Cl)cc3cnc(NC)nc32)CC1` are 2.93 µM and 15.3 µM. The compound `Cc1cc2c(O)c(c1)CN(Cc1ccccc1)Cc1cc(C)cc(c1O)CN(Cc1ccccc1)Cc1cc(C)cc(c1O)CN(Cc1ccccc1)C2` registered a TGI of more than 100 µM.

On to `CC(C)C(=O)OCN(C)c1nc(N(C)COC(=O)C(C)C)nc(N(C)COC(=O)C(C)C)n1`, for which the TGI was more than 100 µM.

With `COc1cc(C(=O)O)ccc1OS(=O)(=O)O`, the TGI was more than 100 µM. On the same count and under the same terms, the figure for `O=c1cc(-c2ccc3ccccc3c2)[nH]c2ncc(Cl)cc12` is more than 100 µM; for `CC(C)(C)COC1C2(OCCO2)C2CCC1(C)C2(C)C` (stereo unspecified) it is more than 100 µM; for `COc1ccc(/C=C2\N=C(N/N=C\C(O)C(O)C(O)C(O)CO)NC2=O)cc1` (stereo unspecified) it is more than 100 µM. The same measure, in the same setting: in the case of `O=C(c1ccc(Cl)cc1)N(C(=S)OC12CC3CC(CC(C3)C1)C2)c1ccccc1` it was more than 100 µM.

As to `O=C(C1OC1c1ccc(F)cc1)C12CC3CC(CC(C3)C1)C2` (stereo unspecified), the TGI was found to be 49.3 µM. Still for that read-out and setting: in the case of `Cn1c(=O)c2c(nc3n(Cc4ccccc4)c(=O)c(Br)cn23)n(C)c1=O` it was more than 100 µM. For the compound `COC1=C(OC)C(=O)C(CCCCCCCCCC[P+](c2ccccc2)(c2ccccc2)c2ccccc2)=C(C)C1=O`, the GI50 was 0.409 µM and the TGI came out at 7.31 µM. `Cc1nnc2n1-c1ccccc1-c1[nH]c3ccccc3c1C2` gave a TGI of more than 100 µM.

`Cc1cc(C(=O)NCCN(C)C)c2nc3ccccc3cc2c1` had a TGI of 6.87 µM.
